# Test results taken from the BET-seq Pho4 binding data (Le et al. 2018).
# This is one part of the list. Values were computed here from the reads of four pooled replicates and scatter widely.
# Biological target: T1, Pho4 (S. cerevisiae) (UniProt P07270)
# T1 sequence: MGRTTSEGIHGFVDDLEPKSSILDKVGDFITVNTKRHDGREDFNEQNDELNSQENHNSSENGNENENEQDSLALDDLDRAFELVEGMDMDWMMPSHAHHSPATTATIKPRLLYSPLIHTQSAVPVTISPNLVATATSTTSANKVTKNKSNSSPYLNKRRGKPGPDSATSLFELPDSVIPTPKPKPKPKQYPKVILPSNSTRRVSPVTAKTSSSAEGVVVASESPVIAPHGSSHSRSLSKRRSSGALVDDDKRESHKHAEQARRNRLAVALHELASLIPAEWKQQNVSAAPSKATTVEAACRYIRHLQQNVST
# Assay: relative binding free energy (BET-seq); higher = weaker binding
# Details: reference: library average
row,Sequence,relative binding free energy [kcal/mol]
1,ACGGGCACGTGTAGGA,0.12
2,TGGCTCACGTGTTAGT,0.32
3,ATAGTCACGTGGATAG,0.17
4,GGGGTCACGTGTTTTC,0.12
5,CGTAACACGTGAAGGG,0.3
6,TATTTCACGTGATCTG,0.27
7,TGATTCACGTGTAACG,0.25
8,TCAAGCACGTGTTTGG,-0.1
9,GTATTCACGTGGTCTG,0.06
10,GTAGTCACGTGTAAAT,0.41
11,TACTGCACGTGGGGCG,-0.25
12,AGTAACACGTGTTTCT,0
13,CGTGCCACGTGAGGGG,-0.02
14,CTTTGCACGTGGGTTA,-0.16
15,TTGGGCACGTGGTGGC,-0.14
16,GTATACACGTGGAGTG,-0.12
17,TGCATCACGTGCAGGT,0.16
18,CTTGTCACGTGGACGT,0.01
19,TGGGACACGTGGTGGG,0.06
20,GGATTCACGTGGTTTG,0.23
21,TTCGGCACGTGGAGTG,-0.07
22,CAGTTCACGTGTCGGT,0.34
23,ACAGGCACGTGTATAG,0.08

row,Sequence,relative binding free energy [kcal/mol]
1,ACGCGCACGTGAGGGG,0.06
2,TTGTACACGTGTTTTG,0.13
3,TGTCTCACGTGTGTCG,0.16
4,AGCAACACGTGGTTTT,0.01
5,AGTGTCACGTGTCCGG,0.01
6,GGAGTCACGTGGATTG,0.2
7,TTGATCACGTGGGGCA,0.07
8,TTGGTCACGTGAGCGT,0.22
9,GCAGACACGTGTAGTG,0.15
10,GGTAACACGTGGGCGC,0.06
11,GTTTTCACGTGATGGA,0.36
12,GATGTCACGTGGATAT,0.13
13,ATCTGCACGTGTAAGA,0.2
14,TCTGGCACGTGGTAAA,-0.14
15,TGAAGCACGTGAGGGA,0.25
16,ACAGGCACGTGGATTG,-0.02
17,TTTGACACGTGTAGGC,0.16
18,TTGGCCACGTGGTTAG,-0.13
19,GTTTACACGTGTGTAG,0.21
20,CTGTGCACGTGCGGCG,-0.16
21,TTGCGCACGTGGAATG,-0.12
22,TTAGTCACGTGAATTT,0.3
23,CTTGGCACGTGTAGGC,-0.11

row,Sequence,relative binding free energy [kcal/mol]
1,AGGGACACGTGCGTGC,0.01
2,ATTATCACGTGGAGGC,0.18
3,ATCGTCACGTGTTATA,0.13
4,TGCTTCACGTGGAGCT,0.2
5,TGTTCCACGTGGGAGG,-0.06
6,TTTGACACGTGTCGTC,0.13
7,GGCGACACGTGAGAGG,0.15
8,CTATACACGTGGTAGG,-0.13
9,TTCGTCACGTGGGGCT,0.08
10,TCTAACACGTGTGTTG,-0.07
11,CTTGTCACGTGGGGGG,-0.09
12,CGTGTCACGTGAGATG,0.3
13,TATGCCACGTGTAGTG,-0.03
14,TAATGCACGTGGAAGT,0.12
15,TGGATCACGTGGGGCC,0.12
16,ACGGTCACGTGGGACG,0.05
17,GCTTGCACGTGTGGGC,0.06
18,TTAAACACGTGGCGTA,-0.11
19,CATCGCACGTGGGGAT,-0.05
20,CTATTCACGTGTTGGA,0.27
21,TTGAGCACGTGAGATT,0.28
22,ATGTGCACGTGCAGGT,0.06
23,TAAGTCACGTGACGTT,0.19

row,Sequence,relative binding free energy [kcal/mol]
1,TTGGTCACGTGGGGAG,0.01
2,TCGTTCACGTGGTTTA,0.39
3,TCTGGCACGTGGATGA,0.04
4,GCCTTCACGTGTGAGG,0.49
5,AGGCGCACGTGGTGGC,-0.31
6,TGACACACGTGGGGTG,-0.25
7,TTGTACACGTGGGCGG,-0.08
8,TTGCCCACGTGGGGGT,-0.37
9,TTTTACACGTGGTTCT,0.09
10,TGAAGCACGTGGAGGT,-0.08
11,GGTGTCACGTGCATTA,0.13
12,TTCTTCACGTGGGTCT,0.17
13,TGGGTCACGTGTTGTG,0.17
14,TTAATCACGTGTTGGA,0.11
15,GTTGACACGTGGTACG,-0.02
16,TTGGCCACGTGCGGGA,-0.15
17,AAGTTCACGTGCTTGG,0.25
18,GGCTACACGTGGGTTG,0.09
19,AGGCTCACGTGGTGTC,0.11
20,CGAGCCACGTGGGGGT,-0.4
21,ATCATCACGTGTAGGG,-0.06
22,TCTAGCACGTGTTATG,-0.13
23,ACTTTCACGTGGTGGT,0.16

row,Sequence,relative binding free energy [kcal/mol]
1,GGATGCACGTGACGTT,0.16
2,ATTATCACGTGTCTGT,0.17
3,CGTGGCACGTGGTATA,-0.22
4,GCGGTCACGTGAGAGT,0.27
5,GGGGACACGTGAGGGA,0.26
6,CGTGACACGTGTGTTA,-0.01
7,GTTGGCACGTGGTAGC,-0.11
8,CGATGCACGTGAGGGA,0.25
9,CTAAGCACGTGTTGGT,-0.16
10,AACGTCACGTGGGGAT,0.03
11,GTGTGCACGTGGTGAT,0.06
12,ATTGTCACGTGTGGTC,0.1
13,GAAGTCACGTGAGAGT,0.35
14,TTGTGCACGTGTAGTC,0.07
15,GAGTTCACGTGGTGCA,0.27
16,GGGGACACGTGGTTGA,0.1
17,GGTGGCACGTGAAGAT,0.3
18,TTCATCACGTGGGATA,0.16
19,GTGCACACGTGGAAGT,0.25
20,GTGCTCACGTGTTTAA,0.21
21,TATTACACGTGTGTTG,0.04
22,GCGCTCACGTGGTTGG,0.23
23,GTGGCCACGTGGAATT,0.16
